According to the RNAGym collection of RNA variant scans (doi:10.1073/pnas.2313332121):
Variants at the background level are over-represented here.

B1: TPR 5TU (parent)
chain: GGAUCUUCUCGAUCUAACAAAAAAGACAAAUCUGCCACAAAGCUUGAGAGCAUCUUCGGAUGCAGAGGCGGCAGCCUUCGGUGGCGCGAUAGCGCCAACGUUCUCAACUAUGACACGCAAAACGCGUGCUCCGUUGAAUGGAGUUUAUCAUG

Variants of: B1
Assay: polymerase ribozyme fitness, log enrichment relative to wild type (log ratio); higher = more active; in vitro selection for triplet polymerase activity
Procedure, shortened: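 PCR was used to build mutant libraries for each subunit of a heterodimeric triplet polymerase ribozyme, which were then transcribed. A single in vitro selection round, in triplicate, used a frozen incubation at −7 °C and recovered extended constructs by gel excision, streptavidin beads and RT-PCR. Fitness is the logarithm of genotype enrichment relative to wild-type enrichment, averaged over replicates with inverse-variance weights. The logarithm is base 2, and after Illumina sequencing only genotypes with ≥10 input reads and ≥1 read per output were kept.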

Row | Variant | polymerase ribozyme fitness (log ratio)
1 | GGAUCUUCUCGAUCUAACAAAAAAGACAAAUCUGCCACAAAGCUUGAGAGCAUCUUCGGAUGCAGAGGCGGCAGUCUUCGGUGGCGCGAUCGCGCCAACGUUCUCAACUAUGACACGCAAAACGCGUGCUCCGUUGAAUGGAGUUUAUCAUG [C75U A91C] | ≤ -4.2
2 | GGAUCUUCUCGAUCUAACAAAAAAGACAAAUCUGCCACAAAGCUUGAGAGCAUCUUCGGAUGCAGAGGCGGCAGUCUUCGGUGGCGCGAUGGCGCCAACGUUCUCAACUAUGACACGCAAAACGCGUGCUCCGUUGAAUGGAGUUUAUCAUG [C75U A91G] | -3.07
3 | GGAUCUUCUCGAUCUAACAAAAAAGACAAAUCUGCCACAAAGCUUGAGAGCAUCUUCGGAUGCAGAGGCGGCAGUCUUCGGUGGCGCGAUGGCGCCAACGUUCUCAACUAUGACACGCAAAACGCGUGCUCCGUUGAAUGGAGUUUCUCAUG [C75U A91G A147C] | -3.68
4 | GGAUCUUCUCGAUCUAACAAAAAAGACAAAUCUGCCACAAAGCUUGAGAGCAUCUUCGGAUGCAGAGGCGGCAGUCUUCGGUGGCGCGAUGGCGCCAAUGUUCUCAACUAUGACACGCAAAACGCGUGCUCCGUUGAAUGGAGUUUAUCAUG [C75U A91G C99U] | -3.56
5 | GGAUCUUCUCGAUCUAACAAAAAAGACAAAUCUGCCACAAAGCUUGAGAGCAUCUUCGGAUGCAGAGGCGGCAGUCUUCGGUGGCGCGAUUGCGCCAACGUUCUCAACUAUGACACGGAAAACGCGUGCUCCGUUGAUUGGAGUUUAUCAUG [C75U A91U C118G A138U] | ≤ -4.2
6 | GGAUCUUCUCGAUCUAACAAAAAAGACAAAUCUGCCACAAAGCUUGAGAGCAUCUUCGGAUGCAGAGGCGGCAGUCUUCGGUGGCGCGAUUGCGCCAACGUUCUCAACUAUGACACGCAAAACGCGUGCUCCGUCGAAUGGAGUUUAUCAUG [C75U A91U U135C] | ≤ -4.2
7 | GGAUCUUCUCGAUCUAACAAAAAAGACAAAUCUGCCACAAAGCUUGAGAGCAUCUUCGGAUGCAGAGGCGGCAGUCUUCGGUGGCGCGAUAGCGCCAACGUUCUCAACUAUGACACGCAAAACGCGUGCUCCGUUGAAUGGCGUUUAUCAUG [C75U A142C] | -1.32
8 | GGAUCUUCUCGAUCUAACAAAAAAGACAAAUCUGCCACAAAGCUUGAGAGCAUCUUCGGAUGCAGAGGCGGCAGUUUGCGGUGGUGCGAUAGCGCCAACGUUCUCAACUAUGACACGCAAAACGCGUGCUCCGUUGAAUGGAGUUUAUCAUG [C75U C76U U78G C85U] | ≤ -4.2
9 | GGAUCUUCUCGAUCUAACAAAAAAGACAAAUCUGCCACAAAGCUUGAGAGCAUCUUCGGAUGCAGAGGCGGCAGUCUUGGGUGGCACGAUAGCGCCAACGUUCUCAACUAUGACACGCAAAACGCGUGCUCCGUUGAAUGGAGUUUAUCAUG [C75U C79G G86A] | ≤ -4.2
10 | GGAUCUUCUCGAUCUAACAAAAAAGACAAAUCUGCCACAAAGCUUGAGAGCAUCUUCGGAUGCAGAGGCGGCAGUCUUCGGUGGUGCGAUAGUGCCAACGUUCUCAACGAUGACACGCAAAACGCGUGCUCCGUUGAAUGGAGUUUAUUAUG [C75U C85U C93U U109G C149U] | ≤ -4.2
11 | GGAUCUUCUCGAUCUAACAAAAAAGACAAAUCUGCCACAAAGCUUGAGAGCAUCUUCGGAUGCAGAGGCGGCAGUCUUCGGUGGUCCGAUAGCGCCAACGUUCUCAACUAUGACACGCAAAACGCGUGCUCCGUUGAAUGGAGUUUAUCAUG [C75U C85U G86C] | -1.49
12 | GGAUCUUCUCGAUCUAACAAAAAAGACAAAUCUGCCACAAAGCUUGAGAGCAUCUUCGGAUGCAGAGGCGGCAGUCUUCGGUGGCGAGAUAGCGCCAACGUUCUCAACUAUGACACGCAAAACGCGUGCUCCGUUGAAUGGAGUUUAUCAUG [C75U C87A] | ≤ -4.2
13 | GGAUCUUCUCGAUCUAACAAAAAAGACAAAUCUGCCACAAAGCUUGAGAGCAUCUUCGGAUGCAGAGGCGGCAGUCUUCGGUGGCGUGAUAGGGCCAACGUUCUCAACUAUGACACGCGAAACGUGUGCUCCGUUGAAUGCAGUUUAUCAUG [C75U C87U C93G A119G C125U G141C] | ≤ -4.2
14 | GGAUCUUCUCGAUCUAACAAAAAAGACAAAUCUGCCACAAAGCUUGAGAGCAUCUUCGGAUGCAGAGGCGGCAGUCUUCGGUGGCGCGAUAGCGGGAACGUUCUCAACUAUGACACGCAAAACGCGUGCUCCGUUGAAUGGAGUUUAUCAUG [C75U C95G C96G] | -3.09
15 | GGAUCUUCUCGAUCUAACAAAAAAGACAAAUCUGCCACAAAGCUUGAGAGCAUCUUCGGAUGCAGAGGCGGCAGUCUUCGGUGGCGCGAUAGCGUUAACGUUCUCAACUAUGACACGCAAAACGCGUGCUCCGUUGAAUGGAGUUUAUCAUG [C75U C95U C96U] | -0.218
16 | GGAUCUUCUCGAUCUAACAAAAAAGACAAAUCUGCCACAAAGCUUGAGAGCAUCUUCGGAUGCAGAGGCGGCAGUCUUCGGUGGCGCGAUAGCGCAAACGUUCUCAACUAUGACACGCAAAACGCGUUCUCCGUUGAAUGGAGUUUAUCAUG [C75U C96A G128U] | -3.56
17 | GGAUCUUCUCGAUCUAACAAAAAAGACAAAUCUGCCACAAAGCUUGAGAGCAUCUUCGGAUGCAGAGGCGGCAGUCUUCGGUGGCGCGAUAGCGCCAAUGUUCUCAACUAUGACACGCAAAACGCGUGCUCCGUUGAAUGGAGUUUAUCAUG [C75U C99U] | -2.07
18 | GGAUCUUCUCGAUCUAACAAAAAAGACAAAUCUGCCACAAAGCUUGAGAGCAUCUUCGGAUGCAGAGGCGGCAGUCUUCCGUGGCGCGAUAGCGCCAACGUUCUCAACUAUGACACGCAAAACGCGUGCUCCGUUGACUGGAGUUUAUCAUG [C75U G80C A138C] | ≤ -4.2
19 | GGAUCUUCUCGAUCUAACAAAAAAGACAAAUCUGCCACAAAGCUUGAGAGCAUCUUCGGAUGCAGAGGCGGCAGUCUUCGAUGGAGCGAUAGCGGCAUCGUUCUCAACUAUGACACGCAAAACGCGUGCUCCGUUGAAUGGAGUUUAUCAUG [C75U G81A C85A C95G A98U] | -3.71
